# Source: the supplement of paper PMC8728848
# Some of the results follow.
# Experiments:
# Assay in all cases: glycan array binding signal (z-score within array); higher = stronger binding
# Conditions in all cases: glycan notation: IUPAC condensed, linker removed
# GalNAc(b1-3)GlcNAc = biological target: GalNAc(b1-3)GlcNAc
# Summary of the method: (§1)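 Columns mapping to the same glycan were averaged after glycan names were converted to IUPAC-condensed notation. The data come from 3228 arrays in the Consortium for Functional Glycomics database, limited to those with an available protein sequence. Binding is reported as a within-array Z-score averaged across arrays of one protein sequence and across linkers.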
# GalNAc(b1-4)Gal(b1-4)Glc = biological target: GalNAc(b1-4)Gal(b1-4)Glc
# Summary of the method: as §1
# GalNAc(b1-4)GlcNAc = biological target: GalNAc(b1-4)GlcNAc
# Summary of the method: as §1
# [1] = biological target: GalNAc(b1-4)GlcNAc(b1-2)Man
# Summary of the method: as §1
# [2] = biological target: GalNAc(b1-4)GlcNAc(b1-2)Man(a1-3)[GalNAc(b1-4)GlcNAc(b1-2)Man(a1-6)]Man(b1-4)GlcNAc(b1-4)GlcNAc
# Summary of the method: as §1
# [3] = biological target: GalNAc(b1-4)GlcNAc(b1-3)GalNAc(b1-4)GlcNAc
# Summary of the method: as §1
# GalNAc(b1-4)GlcNAc6S = biological target: GalNAc(b1-4)GlcNAc6S
# Summary of the method: as §1
# GalNAc(b1-6)GalNAc = biological target: GalNAc(b1-6)GalNAc
# Summary of the method: as §1
# GalNAc3S(b1-4)GlcNAc = biological target: GalNAc3S(b1-4)GlcNAc
# Summary of the method: as §1
# GalNAc3S(b1-4)GlcNAc3S = biological target: GalNAc3S(b1-4)GlcNAc3S
# Summary of the method: as §1
# [4] = biological target: GalNAc3S(b1-4)[Fuc(a1-3)]GlcNAc
# Summary of the method: as §1
# GalNAc4S6S(b1-4)GlcNAc = biological target: GalNAc4S6S(b1-4)GlcNAc
# Summary of the method: as §1
# GalNAc6S(b1-4)GlcNAc = biological target: GalNAc6S(b1-4)GlcNAc
# Summary of the method: as §1
# Glc(a1-4)Glc = biological target: Glc(a1-4)Glc
# Summary of the method: as §1
# [5] = biological target: Glc(a1-4)Glc(a1-4)Glc(a1-4)Glc
# Summary of the method: as §1
# Glc(a1-6)Glc(a1-6)Glc = biological target: Glc(a1-6)Glc(a1-6)Glc
# Summary of the method: as §1
# [6] = biological target: Glc(a1-6)Glc(a1-6)Glc(a1-6)Glc
# Summary of the method: as §1
# Glc(b1-4)Glc = biological target: Glc(b1-4)Glc
# Summary of the method: as §1
# Glc(b1-6)Glc = biological target: Glc(b1-6)Glc
# Summary of the method: as §1
# GlcA(b1-3)Gal = biological target: GlcA(b1-3)Gal
# Summary of the method: as §1
# GlcA(b1-3)GlcNAc = biological target: GlcA(b1-3)GlcNAc
# Summary of the method: as §1
# GlcA(b1-6)Gal = biological target: GlcA(b1-6)Gal
# Summary of the method: as §1
# [7] = biological target: GlcA3S(b1-3)Gal(b1-4)GlcNAc(b1-2)Man
# Summary of the method: as §1
# [8] = biological target: GlcA3S(b1-3)Gal(b1-4)GlcNAc(b1-3)Gal(b1-4)Glc
# Summary of the method: as §1
# [9] = biological target: GlcNAc(a1-3)Gal(b1-4)GlcNAc
# Summary of the method: as §1
# [10] = biological target: GlcNAc(a1-4)Gal(b1-3)GlcNAc
# Summary of the method: as §1
# [11] = biological target: GlcNAc(a1-4)Gal(b1-4)GalNAc
# Summary of the method: as §1
# [12] = biological target: GlcNAc(a1-4)Gal(b1-4)GlcNAc
# Summary of the method: as §1
# [13] = biological target: GlcNAc(a1-4)Gal(b1-4)GlcNAc(b1-3)Gal(b1-4)Glc
# Summary of the method: as §1
# [14] = biological target: GlcNAc(a1-4)Gal(b1-4)GlcNAc(b1-3)Gal(b1-4)GlcNAc
# Summary of the method: as §1
# [15] = biological target: GlcNAc(a1-4)Gal(b1-4)GlcNAc(b1-3)Gal(b1-4)GlcNAc(b1-3)Gal(b1-4)GlcNAc
# Summary of the method: as §1
# [16] = biological target: GlcNAc(a1-4)Gal(b1-4)GlcNAc(b1-3)Gal(b1-4)[Fuc(a1-3)]GlcNAc(b1-3)Gal(b1-4)[Fuc(a1-3)]GlcNAc
# Summary of the method: as §1
# [17] = biological target: GlcNAc(a1-6)Gal(b1-4)GlcNAc
# Summary of the method: as §1
# [18] = biological target: GlcNAc(b1-2)Gal(b1-3)GalNAc
# Summary of the method: as §1
# [19] = biological target: GlcNAc(b1-2)Man(a1-3)[GlcNAc(b1-2)Man(a1-6)]Man(b1-4)GlcNAc(b1-4)GlcNAc
# Summary of the method: as §1
# [20] = biological target: GlcNAc(b1-2)Man(a1-3)[GlcNAc(b1-2)Man(a1-6)]Man(b1-4)GlcNAc(b1-4)[Fuc(a1-6)]GlcNAc
# Summary of the method: as §1
# [21] = biological target: GlcNAc(b1-2)Man(a1-3)[GlcNAc(b1-4)][GlcNAc(b1-2)Man(a1-6)]Man(b1-4)GlcNAc(b1-4)GlcNAc
# Summary of the method: as §1
binder,measurement,setting,value
PpFlo1 (Pichia pastoris) (protein) MGSSHHHHHHSSGLVPRGSHMQESGDGDISDSAYACDIDATRYDGFNATIYEFQPGDGRLTRDPVFMSTGYLNRTQLHSITGVTDPGFSIYTPGVPTTTLYGIPNVNWENLLLELKGYFRAEVSGDYGLSLRNIDDSAILFFGKETAFQCCNENSISNEASTDYSLFTIFRQEGDETTNLDSFTYTQYLEAGKYYPVRTFFVNIERHAVFNFTMTLPDGTELTDFHNYIYQFGALDEEQCQA,glycan array binding signal (z-score),GalNAc(b1-3)GlcNAc,-0.184
same,glycan array binding signal (z-score),GalNAc(b1-4)Gal(b1-4)Glc,-0.32
same,glycan array binding signal (z-score),GalNAc(b1-4)GlcNAc,0.825
same,glycan array binding signal (z-score),[1],-0.267
same,glycan array binding signal (z-score),[2],0.289
same,glycan array binding signal (z-score),[3],-0.577
same,glycan array binding signal (z-score),GalNAc(b1-4)GlcNAc6S,-0.201
same,glycan array binding signal (z-score),GalNAc(b1-6)GalNAc,-0.571
same,glycan array binding signal (z-score),GalNAc3S(b1-4)GlcNAc,-0.43
same,glycan array binding signal (z-score),GalNAc3S(b1-4)GlcNAc3S,-0.49
same,glycan array binding signal (z-score),[4],-0.353
same,glycan array binding signal (z-score),GalNAc4S6S(b1-4)GlcNAc,-0.174
same,glycan array binding signal (z-score),GalNAc6S(b1-4)GlcNAc,-0.512
same,glycan array binding signal (z-score),Glc(a1-4)Glc,-0.508
same,glycan array binding signal (z-score),[5],-0.257
same,glycan array binding signal (z-score),Glc(a1-6)Glc(a1-6)Glc,-0.015
same,glycan array binding signal (z-score),[6],-0.59
same,glycan array binding signal (z-score),Glc(b1-4)Glc,-0.209
same,glycan array binding signal (z-score),Glc(b1-6)Glc,-0.575
same,glycan array binding signal (z-score),GlcA(b1-3)Gal,-0.198
same,glycan array binding signal (z-score),GlcA(b1-3)GlcNAc,-0.554
same,glycan array binding signal (z-score),GlcA(b1-6)Gal,0.088
same,glycan array binding signal (z-score),[7],-0.476
same,glycan array binding signal (z-score),[8],-0.4
same,glycan array binding signal (z-score),[9],-0.426
same,glycan array binding signal (z-score),[10],0.471
same,glycan array binding signal (z-score),[11],0.13
same,glycan array binding signal (z-score),[12],0.008
same,glycan array binding signal (z-score),[13],-0.56
same,glycan array binding signal (z-score),[14],1.1
same,glycan array binding signal (z-score),[15],0.046
same,glycan array binding signal (z-score),[16],0.847
same,glycan array binding signal (z-score),[17],0.325
same,glycan array binding signal (z-score),[18],-0.098
same,glycan array binding signal (z-score),[19],0.686
same,glycan array binding signal (z-score),[20],0.12
same,glycan array binding signal (z-score),[21],-0.685
